Measured values published in the supplement of paper PMC5499739.
Over roughly 16,000 sequences, “Z-score” has its median near -0.37; the highest 2% begin near 3.1. Some of the results follow.

Tested on: RBM10 RRM1-ZnF-RRM2 (GST-tagged construct)
Assay: RNAcompete 7-mer binding Z-score; higher = stronger binding preference
Outline: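 Each heptamer motif was given a one-sided Z-score for enrichment across the probes that contained it. GST-tagged RBM10 constructs (20 pmol) were combined with 1.5 nmol of a designed pool of 241 399 RNAs of up to 41 nt, transcribed from microarray-derived DNA templates. Binding took place in 1 ml Hepes pH 7.8 buffer containing KCl, NaCl, glycerol, DTT, BSA and glutathione Sepharose beads for 30 min at 4°C. After four 2-min washes at 4°C, bound RNA was identified by microarray hybridisation.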

Row | Sequence | RNAcompete 7-mer binding Z-score
1 | CUGCCCU | -0.854
2 | AGGUGUG | 2.32
3 | CGGCACU | -0.398
4 | GAACACU | -0.388
5 | AUUUUAC | -0.948
6 | GUUUGCC | -0.409
7 | AUAUGAC | -0.286
8 | UGUUAGU | -0.286
9 | GAAGGCU | 0.581
10 | GUUUGGC | 0.243
11 | CACGGCA | 0.188
12 | GAGCAUC | -0.377
13 | CGAACGU | -0.235
14 | GCAGUUU | -0.442
15 | AUUUCUC | -0.828
16 | GCCGGUG | 0.366
17 | GACGGUG | 1.7
18 | GCGGCCG | 0.137
19 | CGCCCUU | -0.734
20 | UUCGAGU | -0.333
21 | GAUGGAG | 3.16
22 | CUCUCUA | -0.715
23 | GUGGUAG | 2.26
24 | ACCUUGC | -0.967

Row | Sequence | RNAcompete 7-mer binding Z-score
25 | UAUAGAG | 0.286
26 | UUAUAUA | -0.5
27 | UCCGGGA | 0.301
28 | AAGAACC | -0.562
29 | CAGGGUC | 1.42
30 | GCGCUGC | -0.0598
31 | GUGGUUU | 1.1
32 | UCUAUUC | -0.734
33 | CUGGGAG | 1.4
34 | ACCCAUC | -0.985
35 | GCUUGCG | -0.544
36 | UGGCUGA | 0.141
37 | GCUGCCG | -0.213
38 | AGAACCC | -0.985
39 | GACCCCC | -0.551
40 | UGAACCG | -0.165
41 | UUCUGUA | -0.613
42 | CACACCA | -0.672
43 | GUCCGGC | -0.526
44 | GCCUGGC | -0.413
45 | CCUCACU | -0.821
46 | CACCCGA | -0.795
47 | UUCCAGA | -0.519
48 | CGUUCCC | -0.664

Row | Sequence | RNAcompete 7-mer binding Z-score
49 | UGGUCAA | 0.192
50 | GGGUUAA | 2.84
51 | GGGAAAA | 3.43
52 | GCUCUCG | -0.42
53 | AAGAAUU | -0.286
54 | AGAAGAC | 0.0349
55 | AGCUAAC | -0.326
56 | UUAUGAG | -0.0488
57 | ACCUGCU | -0.948
58 | ACCUCCU | -0.941
59 | CCAAUAC | -0.559
60 | UAGGUCG | 0.865
61 | AUGGCCG | 0.104
62 | AAGUCAG | 0.308
63 | CAUGACC | -0.901
64 | AGUAGCC | -0.235
65 | CGUAGGA | 1.7
66 | GCGAGCC | 0.213
67 | UUAAGCU | -0.755
68 | AAAAGGA | 3.25
69 | GCUGACC | -0.661
70 | UUCCGUG | -0.453
71 | UCGCGAG | -0.114
72 | UAGGACG | 1.73

Row | Sequence | RNAcompete 7-mer binding Z-score
73 | CCUACGA | -0.675
74 | GGAACGC | 0.978
75 | CCCCUAA | -0.683
76 | GCACUGC | -0.326
77 | CUCCACC | -0.755
78 | ACAGCCG | -0.551
79 | GGAGUGC | 1.56
80 | AGUGAUA | 0.428
81 | UGGCGGC | 1.16
82 | AGGGGUA | 3.66
83 | CUGAUGA | -0.683
84 | UCUGGCA | -0.664
85 | UGUUGUA | -0.165
86 | AAAUUAG | -0.114
87 | UAGGGGA | 3.81
88 | AGUUUGG | 1.46
89 | GCCCCCA | -0.468
90 | UCGCCUC | -0.945
91 | UAUGUGG | 0.88
92 | GGCUCAC | -0.388
93 | AAGUCUA | -0.544
94 | AACAGUA | 0.192
95 | CGUUUAG | -0.65
96 | UUUACAA | -0.617

Row | Sequence | RNAcompete 7-mer binding Z-score
97 | GUUACAA | 0.461
98 | CUAAAUG | -0.406
99 | GGCGUUC | 0.126
100 | CAAACCC | -0.785
101 | UAUACGU | -0.271
102 | AAACGUC | -0.613
103 | GUGCCUC | -0.497
104 | CCAUAAG | -0.541
105 | GGGCAUU | 1.11
106 | GCUGCGU | -0.318
107 | AAAAUGU | -0.173
108 | UCUUUUU | -0.799
109 | AUGUAGG | 2.18
110 | UGUGGUC | 0.202
111 | CGUGCAG | 0.108
112 | CUGUCCU | -0.817
113 | AUGAGUG | 1.13
114 | CUGCGGA | 0.0349
115 | UACCUGU | -0.857
116 | CUUCGAA | -0.777
117 | CCCCAGG | -0.246
118 | UGUAUUU | -0.836
119 | UGAGAGA | 0.76
120 | AGCCGGU | -0.231

Row | Sequence | RNAcompete 7-mer binding Z-score
121 | AAAUCCU | -0.715
122 | AAUUACG | -0.3
123 | AAUCGGA | 0.701
124 | CAGAUAG | 0.024
125 | UCCUAAA | -0.781
126 | UAUGGCA | 0.782
127 | CGCGCAA | -0.581
128 | UCAUGCU | -0.715
129 | GUUUCAU | -0.402
130 | GAGGUGU | 2.31
131 | CAGCAUC | -0.704
132 | CGCAUAA | -0.439
133 | ACUAGAC | -0.595
134 | GUUGCCC | -0.606
135 | AAAGACG | 0.752
136 | AUUUAAU | -0.628
137 | UAUUUCG | -0.73
138 | CUCGGUU | -0.559
139 | UUUGUCA | -0.61
140 | ACGGUCG | 0.0459
141 | UAACGGA | 1.09
142 | UUACUCG | -0.632
143 | GUCGACG | 0.224
144 | CCUGGCC | -0.817

Row | Sequence | RNAcompete 7-mer binding Z-score
145 | UUCUAGA | -0.708
146 | AAAGCUG | -0.256
147 | ACUCGCC | -0.868
148 | UCACCAU | -0.795
149 | GUGCGUU | 0.108
150 | CCAAAGC | -0.544
151 | CACUGUU | -0.69
152 | AGAGAAC | -0.0343
153 | GCUCAUG | -0.683
154 | AUCUAAG | -0.453
155 | CCCCAGU | -0.555
156 | UUGAGAA | 0.294
157 | CGUAUCA | -0.471
158 | CGUAUAU | -0.388
159 | UCUACGU | -0.624
160 | CGCGGAU | 0.465
161 | CUCGAAU | -0.715
162 | GGGAAUA | 3.15
163 | CUCUUGU | -0.85
164 | UUGAGCU | -0.479
165 | GUAGUAG | 1.08
166 | AUAACGA | -0.333
167 | AAGCUUU | -0.836
168 | AGGCGGC | 0.425

Row | Sequence | RNAcompete 7-mer binding Z-score
169 | GGAAACU | 0.304
170 | CUUGCGU | -0.759
171 | CCACUGC | -0.599
172 | AGUUUAG | 0.101
173 | AAUCAAA | -0.398
174 | GGCCGAG | 0.45
175 | UGACUAU | -0.468
176 | CGCCUUG | -0.624
177 | CAUGUAA | -0.289
178 | GGGCCUC | -0.176
179 | GCUCCCA | -0.61
180 | UGUAUUA | -0.162
181 | GUGUGCA | 0.366
182 | CAUAAUA | -0.653
183 | GAUACCU | -0.774
184 | ACUUAUA | -0.672
185 | CCGGAUA | 0.119
186 | UCGCAUC | -0.577
187 | GAUGAGC | 0.873
188 | UGGAAAG | 2.78
189 | CACACAC | -0.468
190 | GGGUACA | 3.39
191 | CAGUCUU | -0.857
192 | UUUUGUC | -0.704

Row | Sequence | RNAcompete 7-mer binding Z-score
193 | AACAUAG | 0.345
194 | UACAACG | 0.195
195 | AACGGCA | 0.661
196 | GAGUGAA | 1.13
197 | GUAUCCC | -0.566
198 | UUAGCCA | -0.617
199 | AGCAGUG | 1
200 | CGUGGUU | 0.698
201 | GCCUAGU | -0.544
202 | ACUCUUU | -0.887
203 | UGUACUG | -0.34
204 | UGGCUUG | 0.0641
205 | UUUCUAC | -0.752
206 | AAUACUU | -0.806
207 | UCAUAUA | -0.468
208 | ACAUCCA | -0.632
209 | AUGCGAU | -0.0707
210 | ACCGAAA | -0.57
211 | GCAUCCG | -0.377
212 | AUGCUUC | -0.894
213 | GCCGGGU | 1.29
214 | AACACAU | -0.202
215 | CAGAAGU | 0.0495
216 | ACAUACU | -0.621

Row | Sequence | RNAcompete 7-mer binding Z-score
217 | GGCUGGA | 1.04
218 | CGUCCUU | -0.861
219 | GAUGUUC | -0.788
220 | AAGUUAG | 0.465
221 | GGCGCAG | 1.35
222 | GUGCUUU | -0.566
223 | AAGGAAC | 2.66
224 | GCACAUC | -0.515
225 | AGUCUUA | -0.584
226 | UUACGCA | -0.592
227 | AGGUGGC | 1.62
228 | CGCGGCU | -0.366
229 | AUUCCAU | -0.519
230 | UGAGCUU | -0.584
231 | UGAGCGG | 2.06
232 | UAUAUGA | -0.453
233 | GUUAACC | -0.286
234 | UUUCAAU | -0.515
